Laboratory results as given in PubChem BioAssay AID651820 (National Center for Advancing Translational Sciences (NCATS), 2012).
In all, about 340,000 compounds went through this assay and about 12,000 (3.5%) were called active. This list was built around the results that the source calls inconclusive (neither active nor inactive); the mix of calls is not that of the screen. The call rests on the fitted dose curve; in most records, active means well fitted inhibition curve with a large enough effect; inconclusive means small, poorly fitted or top-dose-only effect, or another doubt; inactive means no such curve, though single readings can be large or run the other way. No potency is given beside an inconclusive call; the fits are too rough.

Test: qHTS Assay for Inhibitors of Hepatitis C Virus (HCV)
Details: Huh7.5.1 HCVcc-Cre (HCVcc is cell-culture hepatitis C virus) infection, luciferase reporter, 44 h; activity change, negative = inhibition: at 41.8 µM (top of the series)
In short: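 1,000 cells/well; 4 h culture; + compound; + HCVcc-Cre (~0.5 moi); 44 h; luciferase substrate, RT 15 min; read 15 sec.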
On the % scale 0 is the no-effect control and ±100 the full control effect; potency means the concentration at half of the fitted maximal effect; tags describe the fitted curve by direction and shape.

SMILES	Potency	activity change, negative = inhibition
NC(=O)c1cc([N+](=O)[O-])ccc1Nc1ccccc1	inconclusive [inhibitor, single point]	
O=C(Nc1cccc(-c2nc3cccnc3s2)c1)c1ccco1	inconclusive [inhibitor, partial curve]	
Cc1ccc(C2=NN(C(=O)CSc3nccn3C)C(c3ccco3)C2)cc1 (stereo unspecified)	inconclusive [inhibitor, full curve]	
CC(C)Cc1ccccc1S(N)(=O)=O		inactive: 7.79%
O=[N+]([O-])c1ccc(N2CCN(c3ccc([N+](=O)[O-])cc3CO)CC2)c(CO)c1	active: 3.16 µM	
CN1CCN(C(=S)c2ccc(-c3cc(Cl)ccc3Cl)o2)CC1	inconclusive [inhibitor, partial curve]	
NCCOc1ccc(C23CC4CC(CC(C4)C2)C3)cc1	inconclusive [inhibitor, single point]	
Cc1ccccc1NC(=O)c1cnn(-c2ccccc2)c1C		inactive: 6.47%
Cc1ccc(NC(=O)Nc2cccc(C)n2)cc1		inactive: -19.8%
CCOc1ccc(CN2CCN(Cc3cnc(-c4ccccc4)s3)CC2CCO)cc1 (stereo unspecified)	inconclusive [inhibitor, partial curve]	
CC(=O)/C(N=Nc1ccc2c(c1)OCCO2)=C(\C)O		inactive: -24%
CC(=NNC(=S)Nc1cccc(Cl)c1)c1ccccn1	inconclusive [inhibitor, full curve, poor fit]	
C=CCCC(=O)NC1CC(C)(C)Cc2c1cnn2-c1cccc(F)c1 (stereo unspecified)		inactive: -11.4%
COc1ccccc1C(=O)Nc1ccc(C(=O)O)cc1		inactive: -2.5%
Nc1nc(COc2ccc(F)cc2Cl)nc(N2CCCCC2)n1	inconclusive [inhibitor, partial curve]	
CNC(C)C#Cc1ccc2oc3cccc(OC)c3c(=O)c2c1 (stereo unspecified)		inactive: -17.9%
N#Cc1cc2c(nc1SC1CCCCC1O)CCCC2 (stereo unspecified)	inconclusive [inhibitor, single point]	
CCOC(=O)C1CCCN(C(=O)COc2ccc(S(=O)(=O)N3CCOCC3)cc2)C1 (stereo unspecified)		inactive: 11.2%
Cc1ccccc1N1CCN(C2CCCN(C(=O)CCc3c(C)noc3C)C2)CC1 (stereo unspecified)	inconclusive [inhibitor, single point]	
CCOC(=O)C1CCN(S(=O)(=O)c2nc3nc(C)cc(C)n3n2)CC1		inactive: 4.89%
CCOC(=O)c1c(NC(=O)CCC(=O)NCc2ccco2)sc2c1CCCC2	inconclusive [inhibitor, full curve, poor fit]	
Nc1ccc(C(=O)NC2CCSc3ccccc32)cc1[N+](=O)[O-] (stereo unspecified)	inconclusive [inhibitor, single point]	
CC(=O)Nc1nc(-c2ccc3c(c2)CCN3C(=O)C2CC2)c(C)s1		inactive: -28.6%
Cc1ccc(C(=O)N2CCc3ccccc32)cc1		inactive: -20.1%

SMILES	Potency	activity change, negative = inhibition
Cc1cc(=O)[nH]c(SCC(=O)N2CCN(C(c3ccccc3)c3ccccc3)CC2)n1	inconclusive [inhibitor, partial curve]	
CCNCc1cc(Br)c(OCC(=O)Nc2ccccc2)c(OC)c1	active: 10 µM	
CCC(=C(c1ccc(OC)cc1)c1ccc(OC)cc1)c1cn(CC(O)CN2CCN(C)CC2)c2ccccc12 (stereo unspecified)	active: 11.2 µM	
CCNC(=S)N/N=C/c1cccc(OCc2c(F)cccc2Cl)c1	inconclusive [inhibitor, single point]	
CC(=O)N/C(=N\c1nc(C)cc(C)n1)Nc1ccc2ccccc2c1		inactive: 2.41%
CCOc1ccc(C(=O)Cc2ccccc2)cc1	inconclusive [inhibitor, single point]	
Cc1cccc(OCC(=O)Nc2ccc(S(=O)(=O)N3CCN(C)CC3)cc2)c1	inconclusive [inhibitor, partial curve, poor fit]	
CCOP(=O)(OCC)c1nc(-c2cccc3ccccc23)oc1NCc1ccc(OC)cc1	inconclusive [inhibitor, partial curve]	
Cc1ccc(C2CC(c3cccs3)=NN2C(=O)CSC2=NCCS2)cc1 (stereo unspecified)	inconclusive [inhibitor, partial curve]	
COc1ccc(/C=N/NC(=O)c2[nH]c(C)c(C(=O)N/N=C/c3ccc(OC)cc3)c2C)cc1	inconclusive [inhibitor, single point]	
COc1cccc(NC(=O)CN2C(=O)NC3(CCCc4ccccc43)C2=O)c1 (stereo unspecified)		inactive: 6.04%
COc1cccc(C(=O)NC(=S)Nc2cccnc2)c1	inconclusive [inhibitor, single point]	
Cc1cc(-n2c(C)cc(C(=O)CSc3nc(N)cc(=O)[nH]3)c2C)no1	inconclusive [inhibitor, partial curve]	
CCOC(=O)c1c(C)c(C(=O)N2CCN(c3ccc(F)cc3)CC2)c(C)n1C	inconclusive [inhibitor, full curve]	
Cc1ccccc1NC(=S)c1ccc2ccccc2n1	inconclusive [inhibitor, partial curve]	
C[C@H](NC(=O)c1[nH]cnc1C(=O)Nc1cccc(Cl)c1)c1ccccc1		inactive: -10.6%
Cc1cccc(Nc2ncccc2C(=O)NCc2cccs2)c1C	inconclusive [inhibitor, single point]	
CCc1ccc2nc(NC(=O)c3ccc4c(=O)[nH]c(CN5CCOCC5)nc4c3)sc2c1	inconclusive [inhibitor, single point]	
COCCn1c(C)cc(C(=O)COC(=O)c2c(C)nn(Cc3ccccc3)c2C)c1C	inconclusive [inhibitor, partial curve]	
CCNC(=S)N(CCc1c(C)[nH]c2ccc(Cl)cc12)Cc1ccco1	active: 10 µM	
O=C(COC(=O)c1ccc([N+](=O)[O-])o1)NC1CCCC1		inactive: 26.3%
CCN1C[C@@H]2[C@@H]3C(=O)N(C)C(=O)[C@@H]3[C@](C)(C1=O)N2C(=O)c1ccccc1		inactive: 9.82%
Cc1nnc2ccc(-c3cccc(NS(=O)(=O)c4cc(F)ccc4F)c3)nn12	inconclusive [inhibitor, single point]	
Cc1ccc(N=Nc2ccc(O)c(/C=N\NC(=O)c3ccc(N)cc3)c2)cc1C	inconclusive [inhibitor, single point]	

SMILES	Potency	activity change, negative = inhibition
COc1ccc(N(C(=O)c2snc(C(N)=O)c2N)C(C(=O)NC2CCCC2)c2ccc(OC)c(OC)c2)cc1 (stereo unspecified)		inactive: -29.4%
COc1ccc2[nH]c(C(=O)Nc3ccccc3Cl)cc2c1	inconclusive [inhibitor, partial curve]	
Cc1cc(N2CCN(C3CCCCC3)CC2)nc2cccc(O)c12	inconclusive [inhibitor, single point]	
Cc1ccc(C)c(NC(=O)CN(C)C(=O)c2cccc(Oc3ccccc3)c2)c1	inconclusive [inhibitor, single point]	
O=C(O)Cc1sc(-c2cccnc2)nc1-c1ccc(Br)cc1	inconclusive [inhibitor, single point]	
CCCNC(=O)Cn1c(=O)/c(=C\c2ccc(-c3ccc([N+](=O)[O-])cc3)o2)s/c1=C\C(=O)C(C)(C)C	inconclusive [inhibitor, partial curve]	
O=C(NC1CC1)C1CCCN(C(=O)Nc2ccc(F)cc2)C1 (stereo unspecified)		inactive: 4.73%
Cc1ccc(NC(=O)c2cc(N3C(=O)C=CC3=O)ccc2N2CCOCC2)cc1	active: 10 µM	
Cc1ccc(NP(=O)(Nc2ccc(C)cc2)Oc2ccccc2)cc1	inconclusive [inhibitor, single point]	
Cc1ccc(S(=O)(=O)NC2(C(=O)O)CCCC2)cc1		inactive: 23.5%
CNC(=O)c1ccc(-c2ccccc2)s1	inconclusive [inhibitor, single point]	
COCCN(Cc1cc2cc3c(cc2nc1Cl)OCO3)C(=O)Nc1ccc(F)cc1	inconclusive [inhibitor, partial curve]	
CCOC(=O)c1ccc(NC(=O)CSc2ccc(-c3cccnc3)nn2)cc1	inconclusive [inhibitor, single point]	
O=C1C=C(O)c2c(O)cc(O)c(O)c2C1=O	inconclusive [inhibitor, single point]	
CCCCSc1nnc(-c2ccc(C)cc2)c2ccccc12	inconclusive [inhibitor, single point]	
CC(C)NC(=O)c1sc2nc3c(c(-c4cccs4)c2c1N)CN(C)CC3		inactive: -5.76%
N#Cc1ccc(C(=O)Nc2nnc(-c3ccco3)o2)cc1	inconclusive [inhibitor, single point]	
CCCn1nc(C(=O)NNC(=O)c2cccc(S(=O)(=O)NC(C)C)c2)c2ccccc2c1=O	inconclusive [inhibitor, single point]	
COC(=O)c1sc(NC(=O)CCCn2nc([N+](=O)[O-])cc2C)c(C(=O)OC)c1C	inconclusive [inhibitor, full curve, poor fit]	
CCn1c(COc2cccc(C)c2)nnc1SCC(=O)Nc1cccc(C(=O)OC)c1	inconclusive [inhibitor, partial curve]	
O=C1C2CCCCN2C(=O)N1CCCCN1CCN(c2ccc([N+](=O)[O-])cc2)CC1 (stereo unspecified)	inconclusive [inhibitor, partial curve]	
Cc1cccc(N2C(=O)CCC2=O)c1		inactive: 5.31%
O=C(NCc1ccccc1Cl)C1CCN(S(=O)(=O)c2cccc3nonc23)CC1	inconclusive [inhibitor, single point]	
